Source: PubChem BioAssay AID686979 (National Center for Advancing Translational Sciences (NCATS), 2013)
“And” between values parts separate entries of the source, which are not always exact repeats. Equal entries are not always repeated. The campaign covered roughly 420,000 compounds. About 50,000 (12%) were called active. Inconclusive means that the source gave no clear call. Such entries were picked first, then a sample of the others. Calls follow the shape of the dose curve; as a rule, active = well fitted inhibition curve with a large enough effect; inconclusive = small, poorly fitted or top-dose-only effect; inactive = flat fitted curve, though single readings scatter. Where the call is inconclusive, the potency comes from a doubtful curve fit.

test: qHTS for Inhibitors of human tyrosyl-DNA phosphodiesterase 1 (TDP1): qHTS in cells in presence of CPT; details: chicken DT40 Tdp1-/-;hTDP1 cells + 20 nM CPT, ATP luminescence, 48 h; activity change, negative = growth inhibition: at 46.2 µM (top of the series) unless noted; also: nearly all actives have a fitted effect of over 55% in size
How it was run: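 Cell growth measured by CellTiter-Glo luminescence after a minimum 48 h, 37 C compound exposure with 20 nM CPT in Tdp1-knockout DT40 cells stably expressing hTDP1, seeded 400/well; qHTS titration format.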
% is scaled to controls: 0 for no effect and ±100 for the full control effect; potency is read from the fitted curve at half-maximal effect; tags tell the direction and shape of the fitted curve.

SMILES	Potency	activity change, negative = growth inhibition
CCCCn1c(SCC(=O)NNC(=O)c2ccccc2)n[nH]c1=O	inactive	–
COC(=O)c1cc(OC)c(OC)cc1NC(=O)c1ccco1	inconclusive: 29.1 µM [inhibitor, single point]	–
CSc1cccc(-n2nnc(-c3nsc(NC(=O)c4cccs4)n3)c2C)c1	inconclusive: 23.1 µM [inhibitor, single point]	–
CNC(=O)COC(=O)c1ccccc1C(=O)c1ccc(Cl)c([N+](=O)[O-])c1	inconclusive: 29.1 µM [inhibitor, single point]	–
CCOC(=O)c1cccc(-c2ccc(C=O)o2)c1	inconclusive: 29.1 µM [inhibitor, single point]	–
COc1ccc(NC(=O)c2ccco2)cc1NC(=O)c1cc2ccccc2o1	active: 23.1 µM	–
Cn1nnnc1NCc1ccccc1F	inactive	–
CCn1c(SCC(=O)Nc2ccc3c(c2)c2ccccc2n3CC)nnc1-c1cnccn1	inconclusive: 29.1 µM [inhibitor, single point]	–
Cc1ccc(C2(C)NC(=O)N(CC(=O)c3ccc(Cl)s3)C2=O)cc1 (stereo not given)	inconclusive: 20.6 µM [inhibitor, single point]	–
COc1ccc(Br)cc1CNC(=O)Cn1nc(C)n2c(cc3cc(F)ccc32)c1=O	–	inconclusive: -17.4% [inhibitor]
O=C(Nc1cnn(Cc2ccc(Cl)cc2Cl)c1)c1noc2c1CCCC2	inconclusive: 29.1 µM [inhibitor, single point]	–
Cc1ccc(S(=O)(=O)Oc2ccc3c(c2)O/C(=C\c2cccnc2)C3=O)cc1	inconclusive: 23.1 µM [inhibitor, single point]	–
CC(OC(=O)c1ccco1)C(=O)NC1CCCC1 (stereo not given)	inactive	–
Cc1cc2nc(C3CCN(Cc4nnnn4Cc4cccs4)CC3)[nH]c2cc1C	active: 3.55 µM	–
Cc1c(Br)c([N+](=O)[O-])nn1CCCC(=O)Nc1sc2c(c1C#N)CCC2	active: 14.6 µM	–
Cc1ccc(C)c(C(=O)N(Cc2nc(-c3ccc(Cl)cc3)no2)C(C)C)c1	inconclusive: 25.9 µM [inhibitor, single point]	–
CCC(CC)NC(=O)CSc1ccc(S(=O)(=O)N2CCCCC2)cn1	inconclusive: 16.4 µM [inhibitor, single point]	–
COc1ccc(-n2c(C)nc3c(cnn3-c3ccc(C)c(C)c3)c2=O)cc1Cl	inconclusive: 23.1 µM [inhibitor, single point]	–
O=S1(=O)C[C@@H](N2CCN(CC3CC3)CC2)[C@H](COCc2ccccc2)N1	inactive	–
Cc1cc(C)cc(Cn2c3ccc(NC(=O)NCCc4cccs4)cc3c(=O)n2C)c1	active: 16.4 µM	–
CCC(C)[C@H]1COCCS(=O)(=O)N1Cc1ccc(Cl)cc1Cl (stereo not given in full)	inconclusive: 22.4 µM [inhibitor, single point] and inconclusive: 29.1 µM [inhibitor, single point]	–
COc1ccc(N2CSC3=C(C#N)C(c4cccc(OC)c4OC)CC(=O)N3C2)cc1 (stereo not given)	inconclusive: 29.1 µM [inhibitor, single point]	–
CCCc1cc(=O)[nH]c(SCC(=O)Nc2ccc(OC(F)F)cc2)n1	inactive	–
COCCn1c(COc2ccc(C)cc2)nc2ccccc21	inconclusive: 29.1 µM [inhibitor, single point]	–

SMILES	Potency	activity change, negative = growth inhibition
CCc1ccc2occ(CC(=O)N(Cc3ccccc3)C3CCS(=O)(=O)C3)c2c1 (stereo not given)	inconclusive: 25.9 µM [inhibitor, single point]	–
Cc1c(C(=O)NCc2ccccc2Cl)sc2ncnc(NCC3CCCO3)c12 (stereo not given)	–	inactive: -3.61% [at 9.04 µM]
COc1ccc(Nc2nc3c(S(=O)(=O)c4ccccc4)nnn3c3ccc(Cl)cc23)cc1	active: 6.51 µM	–
COCCNC(=O)CSc1nc2ccc(N3CCOCC3)cc2c(=O)n1Cc1ccc(OC)cc1	inconclusive: 14.6 µM [inhibitor, single point]	–
C[C@H](CO)N1C[C@H](C)[C@@H](CN(C)Cc2ccccc2)Oc2c(NS(=O)(=O)c3cn(C)cn3)cccc2C1=O	inconclusive: 29.1 µM [inhibitor, single point]	–
CCN(CC)CCCNC(=O)c1cn(CC)c2ccc(S(=O)(=O)N3CCC(C)CC3)cc2c1=O	inactive	–
CC(C)C[C@@H](CN1CCCC1CN1C(=S)NC[C@@H]1Cc1ccccc1)N1C[C@H](Cc2ccc(O)cc2)N(CCc2ccccc2)C1=S (stereo not given in full)	active: 18.4 µM	–
COc1cccc(CNC(=O)Cn2c(=O)ccc3cc(S(=O)(=O)N4CCCC4)ccc32)c1	inactive	–
Cc1c(Cc2ccccc2)c(=O)oc2c(CN(C)C)c(O)c(Cl)cc12	inconclusive: 20.6 µM [inhibitor, single point]	–
O=C(NCCc1ccc(Cl)cc1)C1CCN(c2ncccn2)CC1	inactive	–
O=S(=O)(c1ccc(NC(=S)NN=Cc2ccccc2O)cc1)N1CCCCC1	active: 4.61 µM	–
CC(C)(C)C1CCSC2=NCCC[C@]2(c2ccccc2)C1 (stereo not given in full)	inconclusive: 29.1 µM [inhibitor, single point]	–
Cc1ccc(NC2=C(NCCO)C(=O)c3ccccc3C2=O)cc1	active: 13 µM	–
O=C1C2C(C(=O)N1/N=C/c1ccc([N+](=O)[O-])o1)C1C=CC2C12CC2 (stereo not given)	active: 16.4 µM	–
Fc1ccc(-c2c[nH]c(=S)n2Cc2ccccc2)cc1	active: 20.6 µM	–
CN(C1CCCCC1)S(=O)(=O)c1ccc2c(c1)c(=O)c(C(=O)N1CCN(c3ccccc3)CC1)cn2C	inactive	–
O=C(Cc1cccc([N+](=O)[O-])c1)Nc1cccc(C(=O)N2CCCCC2)c1	inconclusive: 25.9 µM [inhibitor, single point]	–
Cc1ccc(C(=O)N/N=C/c2cn(Cc3ccccc3)c3ccccc23)cn1	inconclusive: 23.1 µM [inhibitor, single point]	–
COCCNC(=O)CSCc1nc(-c2ccc(SC)cc2)oc1C	inactive	–
CCN(CCO)c1ncnc2c1sc1nc(C(C)C)c3c(c12)CC(C)(C)OC3	–	inconclusive: -34.1% [inhibitor]
Cc1cc(C)n2nc(-c3ccc(Cl)cc3)cc2n1	inconclusive: 8.2 µM [inhibitor, partial curve]	–
COc1ccc(-c2cc3ccccc3s2)cc1[C@H]1[C@H]2C=CC[C@@H](C)[C@@H]2C(=O)N1Cc1ccccc1	inconclusive: 23.1 µM [inhibitor, partial curve, poor fit]	–
CCOC(=O)[C@H](O)[C@@H](O)c1cccc([C@H](O)[C@@H](O)C(=O)OCC)c1	inactive	–
O=C(Nc1nc2cc3c(cc2s1)OCCO3)c1ccncc1	inconclusive: 25.9 µM [inhibitor, single point]	–

SMILES	Potency	activity change, negative = growth inhibition
NC(=O)c1cc(Cc2ccccc2)sc1NC(=O)c1ccco1	inconclusive: 29.1 µM [inhibitor, single point]	–
COc1cccc2cc(C(=O)N3CCN(c4ccc(C)cc4C)CC3)c(=O)oc12	inactive	–
CCC(=O)Nn1cnc2c(c1=O)C1(CCCCC1)Cc1ccccc1-2	inconclusive: 16.4 µM [inhibitor, single point]	–
COc1ccc(CN=C(Nc2ccccc2)SC2CC(=O)N(C)C2=O)cc1 (stereo not given)	inconclusive: 29.1 µM [inhibitor, single point]	–
CCN1C(=O)C(=O)N(CC(=O)Nc2cc(C)ccc2C)C1=O	inactive	–
CCOC(=O)C1=CCC(c2ccc(Cl)cc2)N(S(=O)(=O)c2ccc(C)cc2)C1 (stereo not given)	active: 23.1 µM	–
CN(C[C@H](CC1CCCCC1)N(C[C@H](Cc1ccccc1)N(CCc1ccccc1)N=O)N=O)N=O	active: 18.4 µM	–
COCC(=O)Nc1cc(C(=O)N2CCCCC2c2nccs2)c2c(c1)nc(-c1ccncc1)n2C (stereo not given)	inactive	–
O=C1NC(=O)C(CC(=O)N(Cc2cccs2)C2(C(=O)NC3CCCCC3)CCCCC2)N1 (stereo not given)	inconclusive: 29.1 µM [inhibitor, single point]	–
COc1cccc(C(=O)NC(=S)Nc2ccc(N(C)C)cc2)c1	inconclusive: 29.1 µM [inhibitor, single point]	–
CCNC(=O)c1c(O)c2cccc3c2n(c1=O)CC3	inconclusive: 29.1 µM [inhibitor, single point]	–
CCCNC(=O)c1ccc(N2CCC3(CC2)CC(c2cccc(Br)c2)=NO3)c(NC(=O)c2ccc(Cl)c([N+](=O)[O-])c2)c1	inactive	–
C/C(=N\NC(=S)NC1CCCCC1)c1ccc(C)o1	inconclusive: 29.1 µM [inhibitor, single point]	–
CSC(=S)N/N=C(\C)c1ccccc1	active: 3.26 µM	–
COc1ccc(NS(=O)(=O)c2ccc(N3CCCC3)c(NC(=S)Nc3ccc(SC(F)F)cc3)c2)cc1	active: 18.4 µM	–
Cc1cc(C)cc(NC(=O)Nc2cc(S(=O)(=O)N(C)C)ccc2C)c1	inconclusive: 29.1 µM [inhibitor, single point]	–
Cc1ccc(S(=O)(=O)N(C)Cc2ccc(C(=O)N/N=C/c3ccc(OC(F)F)cc3)cc2)cc1	active: 14.6 µM	–
Cc1cc(C)c(NC(=O)CS(=O)CC(=O)NC2CCCc3ccccc32)c(C)c1 (stereo not given)	inactive	–
COc1ccc(-c2csc(N(CC3CCCO3)C(=O)c3ccco3)n2)cc1 (stereo not given)	active: 20.6 µM	–
CN(C)c1ccc(/C=C/c2cc(/C=C/c3ccc(N(C)C)cc3)c3ccccc3n2)cc1	inconclusive: 20 µM [inhibitor, single point]	–
CN1CCN(C(=O)c2ccc(COc3ccc(Cl)cc3Cl)cc2)CC1	inconclusive: 18.4 µM [inhibitor, single point]	–
Cc1c(C(=O)N(CC(C)C)c2c(N)n(Cc3ccccc3)c(=O)[nH]c2=O)sc2nc3n(c(=O)c12)CCC3	inactive	–
